Measurements published in a compilation of properties of binary mixtures (doi:10.1016/j.molliq.2014.10.017).
Some of these densities may be calculated back from excess volumes.

Assay: xn = mol fraction of the nth substance listed
Conditions: 101 kPa

CCCC[n+]1ccn(C)c1.N#C[S-] + CC#N
mass density (293.15 K, x2 = 0): 1072.7 kg/m3
mass density (293.15 K, x2 = 0.0984): 1066 kg/m3
mass density (293.15 K, x2 = 0.1936): 1058 kg/m3
mass density (293.15 K, x2 = 0.4068): 1033.9 kg/m3
mass density (293.15 K, x2 = 0.5994): 998.7 kg/m3
mass density (293.15 K, x2 = 0.6925): 973.6 kg/m3
mass density (293.15 K, x2 = 0.8971): 878.2 kg/m3
mass density (293.15 K, x2 = 0.9465): 839.3 kg/m3
mass density (298.15 K, x2 = 0): 1070.3 kg/m3
mass density (298.15 K, x2 = 0.0984): 1063.4 kg/m3
mass density (298.15 K, x2 = 0.3061): 1043.7 kg/m3
mass density (298.15 K, x2 = 0.4068): 1030.7 kg/m3
mass density (298.15 K, x2 = 0.4899): 1017.5 kg/m3
mass density (298.15 K, x2 = 0.5994): 995.2 kg/m3
mass density (298.15 K, x2 = 0.6925): 969.9 kg/m3
mass density (298.15 K, x2 = 0.7988): 929.5 kg/m3
mass density (298.15 K, x2 = 0.8971): 873.7 kg/m3
mass density (298.15 K, x2 = 0.9465): 834.5 kg/m3
mass density (303.15 K, x2 = 0): 1067.4 kg/m3
mass density (303.15 K, x2 = 0.0984): 1060.4 kg/m3
mass density (303.15 K, x2 = 0.1936): 1052.3 kg/m3
mass density (303.15 K, x2 = 0.3061): 1040.5 kg/m3
mass density (303.15 K, x2 = 0.4068): 1027.4 kg/m3
mass density (303.15 K, x2 = 0.4899): 1014.2 kg/m3
mass density (303.15 K, x2 = 0.5994): 991.7 kg/m3
mass density (303.15 K, x2 = 0.8971): 869.3 kg/m3
mass density (303.15 K, x2 = 0.9465): 829.6 kg/m3
mass density (308.15 K, x2 = 0): 1064.4 kg/m3
mass density (308.15 K, x2 = 0.0984): 1057.4 kg/m3
mass density (308.15 K, x2 = 0.1936): 1049.2 kg/m3
mass density (308.15 K, x2 = 0.3061): 1037.4 kg/m3
mass density (308.15 K, x2 = 0.4068): 1024.2 kg/m3
mass density (308.15 K, x2 = 0.4899): 1010.8 kg/m3
mass density (308.15 K, x2 = 0.5994): 988.2 kg/m3
mass density (308.15 K, x2 = 0.6925): 962.5 kg/m3
mass density (308.15 K, x2 = 0.7988): 921.5 kg/m3
mass density (308.15 K, x2 = 0.8971): 864.8 kg/m3
mass density (308.15 K, x2 = 0.9465): 824.8 kg/m3
mass density (313.15 K, x2 = 0): 1061.5 kg/m3
mass density (313.15 K, x2 = 0.0984): 1054.4 kg/m3
mass density (313.15 K, x2 = 0.1936): 1046.2 kg/m3
mass density (313.15 K, x2 = 0.3061): 1034.3 kg/m3
mass density (313.15 K, x2 = 0.4068): 1021 kg/m3
mass density (313.15 K, x2 = 0.4899): 1007.5 kg/m3
mass density (313.15 K, x2 = 0.5994): 984.7 kg/m3
mass density (313.15 K, x2 = 0.6925): 958.9 kg/m3
mass density (313.15 K, x2 = 0.7988): 917.5 kg/m3
mass density (313.15 K, x2 = 0.8971): 860.3 kg/m3
mass density (313.15 K, x2 = 0.9465): 819.9 kg/m3

CCOS(=O)(=O)[O-].CC[n+]1ccn(C)c1 + CC#N
mass density (293.15 K, x2 = 0.1936): 1215.4 kg/m3
mass density (293.15 K, x2 = 0.2906): 1200.4 kg/m3
mass density (293.15 K, x2 = 0.397): 1179.2 kg/m3
mass density (293.15 K, x2 = 0.4967): 1154 kg/m3
mass density (293.15 K, x2 = 0.7953): 1020.8 kg/m3
mass density (293.15 K, x2 = 0.9516): 863 kg/m3
mass density (298.15 K, x2 = 0.1936): 1211.9 kg/m3
mass density (298.15 K, x2 = 0.2906): 1196.8 kg/m3
mass density (298.15 K, x2 = 0.397): 1175.5 kg/m3
mass density (298.15 K, x2 = 0.4967): 1150.2 kg/m3
mass density (298.15 K, x2 = 0.5938): 1119 kg/m3
mass density (298.15 K, x2 = 0.7953): 1016.5 kg/m3
mass density (298.15 K, x2 = 0.8951): 928.7 kg/m3
mass density (298.15 K, x2 = 0.9516): 858 kg/m3
mass density (303.15 K, x2 = 0.1936): 1208.4 kg/m3
mass density (303.15 K, x2 = 0.2906): 1193.2 kg/m3
mass density (303.15 K, x2 = 0.397): 1171.9 kg/m3
mass density (303.15 K, x2 = 0.4967): 1146.5 kg/m3
mass density (303.15 K, x2 = 0.7953): 1012.1 kg/m3
mass density (308.15 K, x2 = 0.1936): 1204.9 kg/m3
mass density (308.15 K, x2 = 0.2906): 1189.7 kg/m3
mass density (308.15 K, x2 = 0.397): 1168.2 kg/m3
mass density (308.15 K, x2 = 0.4967): 1142.7 kg/m3
mass density (308.15 K, x2 = 0.5938): 1111.3 kg/m3
mass density (308.15 K, x2 = 0.7001): 1065.3 kg/m3
mass density (308.15 K, x2 = 0.7953): 1007.8 kg/m3
mass density (308.15 K, x2 = 0.8951): 919.2 kg/m3
mass density (308.15 K, x2 = 0.9516): 847.9 kg/m3
mass density (313.15 K, x2 = 0): 1226.7 kg/m3
mass density (313.15 K, x2 = 0.0934): 1215.4 kg/m3
mass density (313.15 K, x2 = 0.1936): 1201.4 kg/m3
mass density (313.15 K, x2 = 0.2906): 1186.1 kg/m3
mass density (313.15 K, x2 = 0.397): 1164.6 kg/m3
mass density (313.15 K, x2 = 0.4967): 1138.9 kg/m3
mass density (313.15 K, x2 = 0.7001): 1061.3 kg/m3
mass density (313.15 K, x2 = 0.7953): 1003.5 kg/m3
mass density (313.15 K, x2 = 0.8951): 914.5 kg/m3
mass density (313.15 K, x2 = 0.9516): 842.9 kg/m3

CC#N + CCCC[n+]1ccn(C)c1.N#C[S-]
mass density (303.15 K, x1 = 1): 771.2 kg/m3
mass density (313.15 K, x1 = 1): 760.3 kg/m3

CC#N + CCOS(=O)(=O)[O-].CC[n+]1ccn(C)c1
mass density (298.15 K, x1 = 1): 776.7 kg/m3
mass density (303.15 K, x1 = 1): 771.2 kg/m3
mass density (308.15 K, x1 = 1): 765.8 kg/m3
mass density (313.15 K, x1 = 1): 760.3 kg/m3
